Results as given in PubChem BioAssay AID2101 (National Center for Advancing Translational Sciences (NCATS), 2009).
“And” between values parts separate entries of the source, which are not always exact repeats. Equal values may be shown once. The campaign covered roughly 330,000 compounds. About 300 (0.091%) were called active. About 4% were inconclusive and are not listed. Calls follow the shape of the dose curve; as a rule, active = well fitted inhibition curve with a large enough effect; inconclusive = small, poorly fitted or top-dose-only effect, or effect the other way, or another doubt; inactive = no such curve, though single readings can be large or run the other way. The list shows a part of the results, in another mix than the full data. A structure can be active in one record and inactive in another.

molecular target: Lysosomal acid glucosylceramidase (Homo sapiens) (UniProt P04062); assay: qHTS Assay for Inhibitors and Activators of N370S glucocerebrosidase as a Potential Chaperone Treatment of Gaucher Disease; conditions: N370S GC spleen homogenate, 4MU-glucoside fluorescence; series mostly up to 59.4 µM; activity change, negative = inhibition: at the top concentration;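 as to activity change, negative = inhibition: 0% = full enzyme activity and -100% = no enzyme basal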
Potency is read from the fitted curve at half-maximal effect.

Row | Compound | Potency | activity change, negative = inhibition
1 | COc1cccc(-c2cc(=O)c3ccccc3o2)c1N | inactive | –
2 | O=C(CCc1ccc(O)cc1)c1c(O)cc(O)cc1O | inactive and active: 17.8 µM | –
3 | CCC1Cc2cc(O)ccc2C2=C1c1ccc(O)cc1CC2CC (configuration not stated) | – | inactive: 7.78%
4 | O=c1cc(-c2ccc(O)cc2)oc2ccc(O)cc12 | – | inactive: 6.8%
5 | CN1CCN(CCCN2c3ccccc3Sc3ccc(C(F)(F)F)cc32)CC1 | inactive | –
6 | CCCn1c(N)[n+](CC(=O)c2ccco2)c2ccccc21 | – | inactive: 8.06%
7 | COc1ccc(-c2ccc(F)cc2)cc1C1C2C=CCC(C)C2C(=O)N1Cc1ccccc1 (configuration not stated) | – | inactive: 7.09%
8 | CN1CCN(C2Cc3ccccc3Sc3ccc(S)cc32)CC1 (configuration not stated) | active: 12.6 µM | –
9 | COC(=O)[C@@H]1C[C@@H]2CC[C@@H](O)C[C@@H]2N1Cc1ccc(Cl)cc1 | – | inactive: -25%
10 | CCc1ccc(NC(=O)CN(c2ccc(OC)cc2)S(=O)(=O)c2c(C)[nH]c(=O)[nH]c2=O)cc1 | active: 3.16 µM | –
11 | CCc1cc2c(nc1CC)CCN(CC/C(C)=N/OC[C@H]1O[C@H](c3ccccc3)C=C[C@@H]1Oc1ccc(OC)cc1)C2 | – | inactive: -2.38% [at 12.8 µM]
12 | COc1ccc2c(c1)c(CC(=O)O)c(C)n2C(=O)c1ccc(Cl)cc1 | inactive | –
13 | CN1CCN(CCCN2c3ccccc3Sc3ccc(Cl)cc32)CC1 | inactive | –
14 | Fc1ccccc1-c1nc(NCc2ccccc2)c2ccccc2n1 | active: 12.6 µM | –
15 | N=c1c2c(-c3ccccc3)c(-c3ccccc3)n(Cc3ccccc3)c2ncn1CCO | active: 3.98 µM | –
16 | COc1ccc([C@H]2Sc3ccccc3N(CCN(C)C)C(=O)[C@H]2OC(C)=O)cc1 | – | inactive: -7.04% [at 21.6 µM]
17 | COc1ccc(CNc2nc(-c3ccccc3)nc3ccccc23)cc1OC | active: 14.1 µM | –
18 | Cc1ccccc1-c1nccc(NCc2cccs2)n1 | active: 4.47 µM | –
19 | CCCCC[C@H](O)/C=C\[C@H]1[C@H](C/C=C\CCCC(=O)O)[C@@H](O)C[C@H]1O (tested in a mixture with another compound) | – | inactive: -6.72% [at 21.6 µM]

Row | Compound | Potency | activity change, negative = inhibition
20 | CCCCC[C@H](O)/C=C/[C@H]1[C@H](O)CC(O)[C@@H]1C/C=C\CCCC(=O)O (some centres not stated) | – | inactive: -4.46%
21 | COc1ccc(CNc2nc(-c3ccoc3)nc3ccccc23)c(OC)c1 | active: 14.1 µM | –
22 | OC(CNc1nc(-c2cccnc2)nc2ccccc12)c1ccccc1 (configuration not stated) | active: 10 µM | –
23 | COc1cccc(-c2ccc3ncnc(N(C)Cc4ccco4)c3c2)c1 | – | inactive: -16.1%
24 | Cc1cc2nc3c(=O)[nH]c(=O)nc-3n(CC(O)C(O)C(O)CO)c2cc1C (configuration not stated) | inactive | –
25 | COc1ccc(C2CC(=O)Oc3c(C(CCN4CCCC(C)C4)c4ccc(N(C)C)cc4)c(OC)cc(OC)c32)cc1 (configuration not stated) | – | inactive: -18.9%
26 | Cc1c(C)c2ccc(O[C@@H]3O[C@H](CO)[C@@H](O)[C@H](O)[C@H]3O)c(C)c2oc1=O | – | inactive: 0.724%
27 | COc1ccc(C2CC(c3c(O)cc(C)oc3=O)=NCCS2)c(OC)c1 (configuration not stated) | – | inactive: -1.78%
28 | COc1ccc(C2=C(CN(C)C)C(c3ccccc3)c3ccccc3O2)cc1 (configuration not stated) | – | inactive: -17.3%
29 | COc1cccc(C(=O)Nc2ccc3nc(N4CCOCC4)cc(C)c3c2)c1 | active: 10 µM | –
30 | COc1cc(O)c2c(=O)cc(-c3ccccc3)oc2c1 | – | inactive: 26.7%
31 | COC(=O)C1=C(C)NC(C)=C(C(=O)OCCCN2CCC(c3ccccc3)(c3ccccc3)CC2)[C@H]1c1cccc([N+](=O)[O-])c1 | – | inactive: -23.1%
32 | FC(F)(F)c1ccccc1-c1nccc(NCc2cccs2)n1 | active: 3.16 µM | –
33 | COc1cc(NS(C)(=O)=O)ccc1Nc1c2ccccc2nc2ccccc12 | – | inactive: 0.196%
34 | C[C@@H]([C@H](O)c1ccc(O)cc1)N1CCC(Cc2ccccc2)CC1 | inactive | –
35 | COC(=O)[C@H](C)[C@H]1C[C@]1(C)[C@H](NC(=O)OCc1ccccc1)c1ccccc1 | inactive | –
36 | Oc1ccc(C[C@@H]2CNCCN2CCC23CC4CC(CC(C4)C2)C3)cc1 | – | inactive: -26.3%
37 | Clc1ccccc1-c1nccc(NCc2ccccc2)n1 | active: 3.55 µM | –
38 | COc1ccc(NC(=O)c2ccc(-c3ccc(-c4noc(C)n4)cc3C)cc2)cc1OCCN(C)C | inactive | –

Row | Compound | Potency | activity change, negative = inhibition
39 | Cc1ccc(NC(=O)OCCN2CCN(Cc3ccccc3)CCC2=O)cc1 | – | inactive: -9.87% [at 89.1 µM]
40 | COc1cc2cc3c4cc(OC)c(OC)cc4cc[n+]3c(C)c2cc1OC | – | inactive: 20.4% [at 21.6 µM]
41 | CC(COc1ccc(/C=C/c2ccccc2)cc1)[N+](C)(C)C (configuration not stated) | – | inactive: -18.3%
42 | O=C(N[C@@H](Cc1ccccc1)C(=O)CCl)OCc1ccccc1 | – | inactive: -10.5%
43 | CCCCC[C@H](O)/C=C/[C@@H]1[C@@H](C/C=C\CCCC(=O)O)[C@@H](O)C[C@H]1O | – | inactive: 1.63%
44 | CCc1ccc(/C=C2/SC(=S)N(CCC(=O)NCCCN3CCOCC3)C2=O)cc1 | – | inactive: -14.9%
45 | CC(=O)c1ccc(S(=O)(=O)NC(=O)NC2CCCCC2)cc1 | inactive | –
46 | COc1ccc(Nc2nc(-c3ccccc3)nc3ccccc23)cc1S(=O)(=O)N1CCOCC1 | active: 14.1 µM | –
47 | O=c1cc(-c2ccc(O)cc2)oc2cc(O)cc(O)c12 | inactive | –
48 | C#CCOCCOCCOCCNc1nc(N2CCN(C(=O)CCCCCCCCCCNC(=O)[C@H](CCCCN)n3cc(C)nn3)CC2)nc(N2CCN(C(=O)CCCCCCCCCCNC(=O)[C@@H]([C@H](C)CC)n3cc(CCCCCN)nn3)CC2)n1 | active: 17.8 µM | –
49 | CCCCC[C@H](O)/C=C/[C@@H]1[C@H](C/C=C\CCCC(=O)O)[C@@H](O)C[C@H]1O | inactive | –
50 | Cc1ccc(OC[C@H](O)[C@H](C)NC(C)C)c2c1CCC2 | – | inactive: -2.58%
51 | CCCCC[C@H](O)/C=C/[C@@H]1[C@@H](C/C=C\CCCC(=O)O)[C@@H](O)C[C@@H]1O | inactive | –
52 | Cc1ccn2c(NCc3ccccc3)c(-c3cccs3)nc2c1 | active: 11.2 µM | –
53 | CCO[C@@H]1OC(C(=O)N2CCCCCCC2)=C[C@H](c2csc3ccccc23)[C@H]1CCCO | – | inactive: 27.4%
54 | COCCN1C(=O)N(C)[C@@H](c2ccccc2)C(C(C)=O)=C1C | – | inactive: -7.34% [at 12.8 µM]
55 | COc1ccc(CCN2CCC(Nc3nc4ccccc4n3Cc3ccc(F)cc3)CC2)cc1 | inactive | –
56 | CN(C)c1ccc(O)c2c1C[C@H]1C[C@H]3[C@@H](N(C)C)C(=O)C(C(N)=O)=C(O)[C@]3(O)C(=O)C1=C2O | – | inactive: -6.15% [at 21.6 µM]
57 | COc1ccc2cc(CCC(C)=O)ccc2c1 | inactive | –
